# The list shows a part of the results. Sequences were assembled here from the parent chain. Values near 0.05 are background.
# B1: TEV protease; numbered along this chain (parent)
# chain: MGESLFKGPRDYNPISSSICHLTNESDGHTTSLYGIGFGPFIITNKHLFRRNNGTLVVQSLHGVFKVKDTTTLQQHLVDGRDMIIIRMPKDFPPFPQKLKFREPQREERICLVTTNFQTKSMSSMVSDTSCTFPSGDGIFWKHWIQTKDGQCGSPLVSTRDGFIVGIHSASNFTNTNNYFTSVPKNFMELLTNQEAQQWVSGWRLNADSVLWGGHKVFMVKPEEPFQPVKEATQL
# Variants of: B1
# Test: raw area under fraction-flipped curve 0-4 h after induction (AUC4h, not background-subtracted), DNA-recorder readout of cleavage of the substrate (dimensionless); higher = more cleavage of the substrate by the protease variant
# Settings: temperature: 34 °C; time window: 0-4 h after rhamnose induction
# Protocol: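 In vivo DNA recorder in E. coli TOP10(DE3) ΔrhaA at 34 °C. Each TEVp single-site mutant (parent TEVp 0) is paired with a single-site variant of the 7-mer TEVs (canonical ENLYFQ|S). The substrate sits between flexible linkers in a Bxb1-sfGFP-TEVs-SsrA fusion, so cleavage stabilises Bxb1 and speeds flipping of a recombination array, read by NGS. The value is the raw area under the fraction-flipped curve over 0-4 h after rhamnose induction (AUC4h), with ≥20 reads per time point. It is not background-subtracted; inactive controls average about 0.047.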
# 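Also: Bxb1 expression induced with 0.2% (w/v) L-rhamnose at OD600 near 0.5, cultures sampled hourly, flipped fraction per protease–substrate barcode pair counted by paired-end Illumina sequencing.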
Variant,area with substrate ENLAFQS,area with substrate ENLCFQS,area with substrate ENLDFQS,area with substrate ENLEFQS,area with substrate ENLFFQS,area with substrate ENLGFQS,area with substrate ENLHFQS,area with substrate ENLQFQS,area with substrate ENLRFQS,area with substrate ENLSFQS
L99E,0.0657,0.0772,0.0467,0.0561,0.0742,0.0618,0.06,0.07,0.0645,0.0539
I84H,0.0584,,0.0689,,0.069,0.044,0.0642,,,
I85H,0.0484,,0.0683,0.0562,0.057,,,0.0485,0.0529,0.0685
G153I,,0.0525,,0.052,0.0444,0.0437,,0.0476,0.0538,0.0596
S182E,0.0499,,0.0666,0.0626,0.0854,,,0.0821,,0.0581
T30D,0.0645,0.0655,,0.0547,0.0728,0.0673,0.0646,0.0737,0.0751,
E103S,0.0793,,0.061,,,,,,0.0812,
R204P,0.0451,0.0639,,,0.127,,0.0683,,0.0491,
Y34H,0.0664,0.068,0.0577,,,,0.0789,0.0762,,
V220S,0.0667,0.0557,0.0624,0.0593,0.0924,,0.0792,0.0747,0.0657,
F38V,0.045,,0.0602,,0.0624,,,0.0563,,
Q74I,0.0482,0.0605,0.0644,,0.0642,,0.0068,,,
Q74P,0.0657,,,0.0656,,,0.0635,,,
W203S,0.0618,,0.0532,0.0633,,,0.0519,,0.0512,0.0619
F101H,0.0344,,0.0427,,,,0.04,0.0461,,
F101I,0.0581,,,0.0546,,0.0752,0.0636,,,
H215L,0.0393,,0.0692,0.0641,0.0665,,0.057,0.07,0.0587,0.0468
S171Y,0.0683,0.051,0.0617,0.0792,,0.0603,0.0653,,0.067,0.0796
S158V,0.0546,0.0688,0.0582,,0.051,,0.0514,0.0528,0.0628,0.0556

# Same assay, conditions: temperature: 34 °C; time window: 0-4 h after rhamnose induction
Variant,area with substrate ENLIFQS,area with substrate ENLKFQS,area with substrate ENLPFQS,area with substrate ENLNFQS,area with substrate ENLVFQS,area with substrate ENLLFQS,area with substrate ENLTFQS,area with substrate ENLWFQS,area with substrate ENLMFQS
I84H,0.0642,0.051,0.0592,,,,,,
I85H,,,0.0246,0.0547,0.0603,,,,
G153I,,,,,,0.0484,,,
S182E,,0.0541,,0.0571,0.0494,0.0705,0.0621,0.0571,
T30D,,,,0.0624,0.0701,,,,
E103S,,,0.0804,,,,,,
R204P,,,0.0548,0.0722,,,0.0722,,
Y34H,,0.0985,0.0497,,,0.0814,,0.0515,
V220S,,,,0.0631,0.0827,,,,
F38V,,,,0.0606,,0.0725,,0.0675,
Q74I,,,,,0.075,,,,0.0482
Q74P,0.0719,0.131,,,,,,,
W203S,0.052,0.0622,0.0561,0.059,0.0438,0.0582,,,
F101H,,,0.0743,,0.0349,,,,
F101I,,0.0613,,,,0.0126,,,
H215L,0.06,0.0663,,0.0689,0.0575,0.0513,,,0.0611
S171Y,,0.0555,0.0565,0.0644,,0.0698,,,0.0707
S158V,,0.0658,0.0516,0.0501,,0.0532,,0.0382,
